In PubChem BioAssay AID493208 (National Center for Advancing Translational Sciences (NCATS), 2011):
In all, about 44,000 compounds went through this assay and about 340 (0.77%) were called active. Roughly 5% stayed inconclusive and do not appear here. The call rests on the fitted dose curve; in most records, active means well fitted inhibition curve with a large enough effect; inconclusive means small, poorly fitted or top-dose-only effect; inactive means flat fitted curve, though single readings scatter. The list shows a part of the results.

Experiment: Acumen qHTS Assay for Inhibitors of the mTORC1 Signaling Pathway in MEF (Tsc2-/-, p53-/-) Cells: Sytravon;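 further: plate controls were DMSO for no effect and rapamycin for full effect; nearly all actives have a fitted effect of over 50% in size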
Settings: phospho-rpS6 immunofluorescence/PI, 24 h; series mostly up to 38.3 µM; activity change, negative = inhibition: at the top concentration
Summary of the method: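 Compounds act on Tsc2-/-, p53-/- fibroblasts carrying an empty vector for 24 h before fixation and dual staining for phospho-S6 and DNA (propidium iodide). Values are percentages of cells above a rapamycin-defined pS6/PI threshold.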

Row | Compound | activity change, negative = inhibition
1 | Cc1ccc(NC(=O)C2CCN(C(=O)c3cnn(-c4ccccc4)c3-n3cccc3)CC2)cc1C | inactive: -4.03%
2 | O=C(NCC(c1cccnc1)N1CCc2ccccc2C1)C(=O)Nc1ccc(F)cc1F (centres undefined) | inactive: -11.8%
3 | Cc1cccc(-c2nc(C)c(CCNC(=O)c3cccs3)s2)c1 | inactive: 1.86%
4 | O=C(CN1CCCN(Cc2cccc(F)c2)S1(=O)=O)Nc1ccc2c(c1)OCCO2 | inactive: 0%
5 | CC(C)c1ccc(NC(=O)CCNS(=O)(=O)c2ccc3c(c2)oc(=O)n3C)cc1 | inactive: -11.4%
6 | C=C(C)Cn1c(SCC(=O)Nc2cccc(C)c2)nc2sc3c(c2c1=O)CCCC3 | inactive: 2.25%
7 | COC(=O)c1nnn(-c2ccc(Cl)cc2)c1C(=O)OC | inactive: -1.58%
8 | O=C(CCS(=O)(=O)c1nc(-c2ccc3c(c2)OCO3)cc(C(F)(F)F)n1)Nc1ccc(F)cc1F | inactive: 2.5%
9 | CCS(=O)(=O)c1ncc(Cl)c(C(=O)Nc2c(C(=O)c3ccc(C)cc3)oc3ccccc23)n1 | inactive: -4.91%
10 | Cc1ccc(-n2ncc(C(=O)N3CCN(C(=O)c4ccco4)CC3)c2C2CCN(C(=O)OC(C)(C)C)CC2)cc1 | inactive: -3.09%
11 | COc1cccc(-c2cn3c(n2)sc2cc(C(=O)NCCC4=CCCCC4)ccc23)c1 | inactive: -1.23%
12 | O=C(CSc1oc(-c2ccc(F)cc2)nc1S(=O)(=O)c1ccc(Cl)cc1)c1ccccc1 | inactive: -5.11%
13 | Cc1cccc(CCNC(=O)c2nn(C)c3c2CSc2ccccc2-3)c1 | inactive: 1.01%
14 | O=C(c1ccc2c(c1)N(Cc1cccc(Cl)c1)C(=O)c1ccccc1S2(=O)=O)N1CCCCCC1 | inactive: -7.39%
15 | CCOc1ccc(CN(C(=O)c2cc(=O)c3cc(Cl)ccc3o2)C2CCS(=O)(=O)C2)cc1 (centres undefined) | inactive: -10.2%
16 | CCCCOC(=O)c1c(C)oc2ccc(NS(=O)(=O)c3ccc(F)cc3C)cc12 | inactive: -2.13%
17 | CCc1ccc(CNc2ncnc3onc(-c4ccc(Cl)cc4)c23)cc1 | inactive: -14.5%
18 | COc1ccc(-c2cc(C(F)(F)F)n3nc(C(=O)Nc4sc5c(c4C(=O)OC(C)C)CCCC5)cc3n2)cc1OC | inactive: -0.262%
19 | COc1ccc(N2CCN(C(CNC(=O)c3cccc(OC)c3)c3cccnc3)CC2)cc1 (centres undefined) | inactive: -4.89%
20 | CCN(CC)C(=O)C1CCN(c2cc(C)nc3c(-c4ccc(OC)c(OC)c4)c(C)nn23)CC1 | inactive: -3.58%

Row | Compound | activity change, negative = inhibition
21 | Cn1c(C(=O)N2CCCC(C(=O)N3CCN(c4ccccc4)CC3)C2)cc2sccc21 (centres undefined) | inactive: -1.63%
22 | COc1ccc(NC(=O)Cn2c(=O)n(-c3ccc(C)c(C)c3)c(=O)c3c4c(sc32)CCCCC4)cc1Cl | inactive: 1.65%
23 | CCc1ccc(NC(=O)CSc2cn(CC(=O)N3CCOCC3)c3ccccc23)cc1 | inactive: 2.32%
24 | CCCCNC(=O)CSC1=Nc2ccccc2C2=NC(CCC(=O)NCc3ccccc3OC)C(=O)N12 (centres undefined) | inactive: -1.92%
25 | CC(CC(=O)NCc1ccc(Cl)cc1Cl)CC1=NS(=O)(=O)c2ccccc2N1 (centres undefined) | inactive: -3.83%
26 | COc1ccc(CCNC(=O)c2cc(=O)c3c(C)cc(C)cc3o2)cc1OC | inactive: -7.77%
27 | COC(=O)c1ccc(NC(=O)C(=O)NCCc2sc3nc(-c4ccc(OC)cc4)nn3c2C)cc1 | inactive: 0.562%
28 | O=C(CCn1c(=O)c2cccn2c2cccnc21)NCc1ccc(Cl)cc1 | inactive: 1.5%
29 | COc1ccccc1NC(=O)C1=C(C)Nc2c(C(=O)Nc3cccc(C)c3)cnn2C1c1ccccc1C (centres undefined) | inactive: -9.99%
30 | COc1cc2c(cc1OC)n(CC(=O)Nc1ccccc1)c(=O)n1nc(-c3ccccc3)nc21 | inactive: -12.7%
31 | Cc1ccc(/C=C/c2nc3ccccc3n2S(=O)(=O)c2cccc(Cl)c2)cc1 | inactive: -5.04%
32 | Cc1cccc(OC(=O)c2nc(SCc3ccccc3F)ncc2Cl)c1 | inactive: -0.237%
33 | CCOC(=O)c1ccc(NC(=O)Cn2cc(C(=O)c3cccs3)c3ccccc32)cc1 | inactive: 2.35%
34 | Cc1ccc(Nc2nc3c(S(=O)(=O)c4ccccc4)nnn3c3ccc(Cl)cc23)c(C)c1 | inactive: -6.68%
35 | Cc1nc2ccn(Cc3cccs3)c(=O)c2cc1C(=O)NCc1ccc(Cl)cc1 | inactive: -5.14%
36 | CCCN(CCC)CCCNC(=O)c1sc2nc3n(c(=O)c2c1C)CCC3 | inactive: 1.5%
37 | Cc1ccccc1OCCSc1nnc(-c2ccc([N+](=O)[O-])cc2)o1 | inactive: 0%
38 | O=C(NCC(c1ccc2c(c1)OCO2)N1CCOCC1)C(=O)Nc1ccc(Cl)cc1 (centres undefined) | inactive: -2.68%
39 | Oc1cccc(-c2nc(-c3cccs3)c(-c3cccs3)[nH]2)c1 | inactive: -9.09%
40 | COc1ccccc1NC(=O)c1cc2c(n(-c3ccc(C)cc3)c1=O)CC(C)(C)CC2=O | inactive: 3.32%

Row | Compound | activity change, negative = inhibition
41 | COc1ccc(CNC(=O)CSCc2ccc(C)cc2)c(OC)c1 | inactive: 0.914%
42 | O=C(c1ccc2c(c1)N(Cc1cccc(Cl)c1)C(=O)c1ccccc1S2(=O)=O)N1CCN(Cc2ccccc2)CC1 | inactive: -6.97%
43 | CCc1cc2c(cc3c(=O)n(CC(=O)NC(C)C)nc(CC)n32)s1 | inactive: 0.0695%
44 | CCC1CCCCN1CCCNC(=O)c1sc2nc(C)cc(C)c2c1-n1cccc1 (centres undefined) | inactive: 0.408%
45 | COc1ccc(CNC(=O)Cn2c(=O)n3nc(-c4cccc(F)c4)nc3c3ccccc32)cc1OC | inactive: 1.71%
46 | COc1ccc(CNC(=O)C2=Cc3cccc(OC)c3OC2)cc1OC | inactive: 3.95%
47 | O=C(Nc1ccc(F)cc1F)c1cc(CN2CCOCC2)on1 | inactive: -1.79%
48 | COc1ccc(OC)c(NS(=O)(=O)c2ccc3c(c2)CCCN3C(=O)C2CCC2)c1 | inactive: 0.404%
49 | COc1cccc(C(c2sc3nc(-c4ccco4)nn3c2O)N2CCC3(CC2)OCCO3)c1 (centres undefined) | inactive: -13.9%
50 | CCc1ccc(CNC(=O)c2ccc(-n3c(C)cc4c3CCC(C)C4)cc2)cc1 (centres undefined) | inactive: -11%
51 | Cc1ccc(S(=O)(=O)Nc2ccc3c(c2)CCCN3C(=O)c2cccs2)cc1C | inactive: 0.28%
52 | COc1cc(Br)c(C2CC(=O)Nc3cc4c(cc32)OCCO4)cc1OC (centres undefined) | inactive: -13.2%
53 | Cc1cccc(NC(=O)C(Cc2ccccc2)N2Cc3ccccc3C2=O)c1C (centres undefined) | inactive: 4.16%
54 | CCc1ccc(NC(=O)c2ccc(F)c(S(=O)(=O)N3CCc4ccccc4C3)c2)cc1 | inactive: -4.17%
55 | CCc1nn(CC(=O)NCCN(CC(C)C)CC(C)C)c(=O)c2cc3sc(C)cc3n12 | inactive: -3.68%
56 | COc1ccc(-c2nc(CSc3nnc(C)n4c3cc3sccc34)c(C)o2)cc1 | inactive: -10.2%
57 | Oc1ccccc1-c1nc2ccc(Cl)cn2c1Nc1ccc2c(c1)OCCO2 | inactive: -1.32%
58 | O=C(Nc1c(C(=O)N2CCN(c3ccccc3F)CC2)oc2ccccc12)c1ccc(Br)o1 | inactive: -18.2%
59 | COc1ccc(-c2ccc(=O)n(CC(=O)Nc3ccccc3C(F)(F)F)n2)cc1 | inactive: -2.12%
